According to the supplement of paper PMC4604168 (melanoma cell lines):
The other results are listed elsewhere or left out. Single values are uncertain, as repeats are few or missing.

What was measured:
Assay in all cases: cell count relative to DMSO control; melanoma cells; higher = more viable cells
Conditions in all cases: library dose: low library concentration; 72 h
[1] = system: WM115
[2] = system: WM1716
[3] = system: WM1745
[4] = system: WM3526
[5] = system: WM3619
[6] = system: WM451Lu
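Also: cell number obtained by counting DAPI-stained nuclei in high-throughput microscope images with image analysis software, screen run in 1,536-well plates.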

O=C(O)c1ccc(-c2c[nH]c3ncc(-c4ccccc4)cc23)cc1C1CCCC1 + O=c1cc(-c2cccc3c2Sc2ccccc2S3)oc(N2CCOCC2)c1 [KU55933] (first compound 0.16 µM, partner dose 1 µM)
cell count [1]: 106%
cell count [2]: 104%
cell count [3]: 96.3%
cell count [4]: 91.8%
cell count [5]: 149%
cell count [6]: 120%

C[C@@H]1CCN(C(=O)CC#N)C[C@@H]1N(C)c1ncnc2[nH]ccc12 + O=C(O)C(=O)Nc1sc2c(c1C(=O)O)CCNC2 [TCS401] (first compound 1 µM, partner dose 1.66667 µM)
cell count [1]: 94.3%
cell count [2]: 109%
cell count [3]: 96.6%
cell count [4]: 114%
cell count [5]: 114%
cell count [6]: 107%

O=C(Nc1cccc(Cl)c1)Nc1ncc(CCNc2ncnc3ccsc23)s1 + CCCCCCCCCCCC1=C(O)C(=O)C=C(O)C1=O [Embelin] (first compound 0.0008 µM, partner dose 1.2 µM)
cell count [1]: 93.3%
cell count [2]: 112%
cell count [3]: 83.8%
cell count [4]: 102%
cell count [5]: 118%
cell count [6]: 127%

O=c1[nH]nc(Sc2ncc([N+](=O)[O-])s2)n1-c1ccc2c(c1)OCCO2 + O=C(O)c1ccc2c(c1)nc(Nc1cccc(Cl)c1)c1ccncc12 [CX4945] (first compound 0.2 µM, partner dose 0.4 µM)
cell count [1]: 111%
cell count [2]: 89.8%
cell count [3]: 94.7%
cell count [4]: 112%
cell count [5]: 96.3%
cell count [6]: 102%

CC1(C)NC(=O)N(c2ccc([N+](=O)[O-])c(C(F)(F)F)c2)C1=O [nilutamide] + CO[C@@H]1[C@H](N(C)C(=O)c2ccccc2)C[C@H]2O[C@]1(C)n1c3ccccc3c3c4c(c5c6ccccc6n2c5c31)C(=O)NC4 [Midostaurin] (first compound 1 µM, partner dose 0.08 µM)
cell count [1]: 81.7%
cell count [2]: 81.7%
cell count [3]: 12.1%
cell count [4]: 103%
cell count [5]: 105%
cell count [6]: 109%

CC1(C)NC(=O)N(c2ccc([N+](=O)[O-])c(C(F)(F)F)c2)C1=O [nilutamide] + COc1ccc(COc2ccc(Cc3cnc(N)nc3N)cc2OC)cc1 [GW2580] (first compound 1 µM, partner dose 1 µM)
cell count [1]: 113%
cell count [2]: 91.6%
cell count [3]: 88.9%
cell count [4]: 115%
cell count [5]: 84.2%
cell count [6]: 111%

O=c1[nH]nc(Sc2ncc([N+](=O)[O-])s2)n1-c1ccc2c(c1)OCCO2 + COc1cc(N2CCC(N3CCN(C)CC3)CC2)ccc1Nc1ncc(Cl)c(Nc2ccccc2S(=O)(=O)C(C)C)n1 [NVP-TAE684] (first compound 0.2 µM, partner dose 0.08 µM)
cell count [1]: 99.7%
cell count [2]: 104%
cell count [3]: 72.6%
cell count [4]: 106%
cell count [5]: 76.1%
cell count [6]: 94.3%

COc1cc(Nc2ncc(F)c(Nc3ccc4c(n3)NC(=O)C(C)(C)O4)n2)cc(OC)c1OC [Tamatinib] + CC(C)CCN1c2nc(Nc3cc(F)c(O)c(F)c3)ncc2N(C)C(=O)C1C [BID1870] (first compound 0.4 µM, partner dose 0.2 µM)
cell count [1]: 74.1%
cell count [2]: 94.2%
cell count [3]: 68%
cell count [4]: 81.8%
cell count [5]: 86%
cell count [6]: 88.7%

O=c1[nH]nc(Sc2ncc([N+](=O)[O-])s2)n1-c1ccc2c(c1)OCCO2 + Nc1nc(F)nc2c1ncn2[C@@H]1O[C@H](CO)[C@@H](O)[C@@H]1O [fludarabine] (first compound 0.2 µM, partner dose 0.2 µM)
cell count [1]: 81%
cell count [2]: 99.8%
cell count [3]: 81.4%
cell count [4]: 39.4%
cell count [5]: 85.6%
cell count [6]: 51.8%

O=c1[nH]nc(Sc2ncc([N+](=O)[O-])s2)n1-c1ccc2c(c1)OCCO2 + CCCCCCCCc1ccc(CCC(N)(CO)CO)cc1 [fingolimod] (first compound 0.2 µM, partner dose 2 µM)
cell count [1]: 98.2%
cell count [2]: 88%
cell count [3]: 96.5%
cell count [4]: 100%
cell count [5]: 95.4%
cell count [6]: 103%

C[C@@H]1CCN(C(=O)CC#N)C[C@@H]1N(C)c1ncnc2[nH]ccc12 + Oc1cc(-c2nc(-c3ccccc3)[nH]c2-c2ccncc2)ccc1Cl [L779450] (first compound 1 µM, partner dose 0.2 µM)
cell count [1]: 86.4%
cell count [2]: 114%
cell count [3]: 88%
cell count [4]: 69.1%
cell count [5]: 111%
cell count [6]: 103%

O=C(Nc1cccc(Cl)c1)Nc1ncc(CCNc2ncnc3ccsc23)s1 + CC(C)CCN1c2nc(Nc3cc(F)c(O)c(F)c3)ncc2N(C)C(=O)C1C [BID1870] (first compound 0.0008 µM, partner dose 0.2 µM)
cell count [1]: 68.5%
cell count [2]: 107%
cell count [3]: 108%
cell count [4]: 92.5%
cell count [5]: 95.2%
cell count [6]: 97.7%

O=c1[nH]nc(Sc2ncc([N+](=O)[O-])s2)n1-c1ccc2c(c1)OCCO2 + CN(c1ncccc1CNc1nc(Nc2ccc3c(c2)CC(=O)N3)ncc1C(F)(F)F)S(C)(=O)=O [PF562271] (first compound 0.2 µM, partner dose 0.08 µM)
cell count [1]: 83.1%
cell count [2]: 93%
cell count [3]: 87.6%
cell count [4]: 103%
cell count [5]: 87.8%
cell count [6]: 85.9%

CC1(C)NC(=O)N(c2ccc([N+](=O)[O-])c(C(F)(F)F)c2)C1=O [nilutamide] + C=CCn1c(=O)c2cnc(Nc3ccc(N4CCN(C)CC4)cc3)nc2n1-c1cccc(C(C)(C)O)n1 [MK1775] (first compound 1 µM, partner dose 0.02 µM)
cell count [1]: 93.3%
cell count [2]: 79.6%
cell count [3]: 83.8%
cell count [4]: 71.7%
cell count [5]: 91.4%
cell count [6]: 105%

COc1cc(Nc2ncc(F)c(Nc3ccc4c(n3)NC(=O)C(C)(C)O4)n2)cc(OC)c1OC [Tamatinib] + O=S(=O)(c1ccccc1)N(CC(F)(F)F)c1ccc(C(O)(C(F)(F)F)C(F)(F)F)cc1 [T0901317] (first compound 0.4 µM, partner dose 1.4 µM)
cell count [1]: 77.3%
cell count [2]: 75.9%
cell count [3]: 62.2%
cell count [4]: 67.8%
cell count [5]: 81.2%
cell count [6]: 89.9%

COc1cc(Nc2ncc(F)c(Nc3ccc4c(n3)NC(=O)C(C)(C)O4)n2)cc(OC)c1OC [Tamatinib] + O=c1cc(-c2cccc3c2Sc2ccccc2S3)oc(N2CCOCC2)c1 [KU55933] (first compound 0.4 µM, partner dose 1 µM)
cell count [1]: 93.1%
cell count [2]: 98.8%
cell count [3]: 78%
cell count [4]: 78.4%
cell count [5]: 83.7%
cell count [6]: 91.1%

O=c1[nH]nc(Sc2ncc([N+](=O)[O-])s2)n1-c1ccc2c(c1)OCCO2 + C=CCNC1=C2C[C@@H](C)C[C@H](OC)[C@H](O)[C@@H](C)/C=C(\C)[C@H](OC(N)=O)[C@@H](OC)/C=C\C=C(/C)C(=O)NC(=CC1=O)C2=O [Tanespimycin] (first compound 0.2 µM, partner dose 0.002 µM)
cell count [1]: 88%
cell count [2]: 88.9%
cell count [3]: 111%
cell count [4]: 93.4%
cell count [5]: 93.5%
cell count [6]: 89.7%

COc1cc(Nc2ncc(F)c(Nc3ccc4c(n3)NC(=O)C(C)(C)O4)n2)cc(OC)c1OC [Tamatinib] + Cc1ccc(NC(=O)c2cccc(N(C)C)c2)cc1NC(=O)c1ccc(O)cc1 [ZM336372] (first compound 0.4 µM, partner dose 2 µM)
cell count [1]: 88.6%
cell count [2]: 82%
cell count [3]: 66.6%
cell count [4]: 98.1%
cell count [5]: 94.2%
cell count [6]: 84.8%

COc1cc(Nc2ncc(F)c(Nc3ccc4c(n3)NC(=O)C(C)(C)O4)n2)cc(OC)c1OC [Tamatinib] + O=C(Nc1ccccc1)c1cc([N+](=O)[O-])ccc1Cl [GW9662] (first compound 0.4 µM, partner dose 2 µM)
cell count [1]: 90.7%
cell count [2]: 94.8%
cell count [3]: 53.3%
cell count [4]: 95.9%
cell count [5]: 79.2%
cell count [6]: 111%

O=C(O)c1ccc(-c2c[nH]c3ncc(-c4ccccc4)cc23)cc1C1CCCC1 + COC(=O)c1sccc1S(=O)(=O)Nc1ccc(Nc2ccccc2)cc1OC [GSK0660] (first compound 0.16 µM, partner dose 1 µM)
cell count [1]: 107%
cell count [2]: 95.8%
cell count [3]: 98.4%
cell count [4]: 105%
cell count [5]: 81.4%
cell count [6]: 96.1%

O=C(O)c1ccc(-c2c[nH]c3ncc(-c4ccccc4)cc23)cc1C1CCCC1 + Cc1cc([N+](=O)[O-])ccc1NS(=O)(=O)c1cc(Cl)ccc1Cl [FH535] (first compound 0.16 µM, partner dose 1 µM)
cell count [1]: 79%
cell count [2]: 93.6%
cell count [3]: 86.1%
cell count [4]: 73.7%
cell count [5]: 106%
cell count [6]: 90%

O=c1[nH]nc(Sc2ncc([N+](=O)[O-])s2)n1-c1ccc2c(c1)OCCO2 + Cn1cnc2c(F)c(Nc3ccc(Br)cc3Cl)c(C(=O)NOCCO)cc21 [selumetinib] (first compound 0.2 µM, partner dose 0.015 µM)
cell count [1]: 99.2%
cell count [2]: 92.6%
cell count [3]: 88.6%
cell count [4]: 84%
cell count [5]: 63.2%
cell count [6]: 101%

COc1cc(Nc2ncc(F)c(Nc3ccc4c(n3)NC(=O)C(C)(C)O4)n2)cc(OC)c1OC [Tamatinib] + COc1cc2ncnc(Nc3ccc(Oc4ccccc4)cc3)c2cc1OC [SrcI1] (first compound 0.4 µM, partner dose 2 µM)
cell count [1]: 86.5%
cell count [2]: 88.9%
cell count [3]: 60.3%
cell count [4]: 83.6%
cell count [5]: 97.5%
cell count [6]: 100%

O=C(O)c1ccc(-c2c[nH]c3ncc(-c4ccccc4)cc23)cc1C1CCCC1 + COc1cc(N2CCC(N3CCN(C)CC3)CC2)ccc1Nc1ncc(Cl)c(Nc2ccccc2S(=O)(=O)C(C)C)n1 [NVP-TAE684] (first compound 0.16 µM, partner dose 0.08 µM)
cell count [1]: 87.2%
cell count [2]: 86.9%
cell count [3]: 81.7%
cell count [4]: 118%
cell count [5]: 92.7%
cell count [6]: 111%

O=c1[nH]nc(Sc2ncc([N+](=O)[O-])s2)n1-c1ccc2c(c1)OCCO2 + c1cc(-c2cnn3cc(-c4ccc(OCCN5CCCCC5)cc4)cnc23)ccn1 [Dorsomorphin] (first compound 0.2 µM, partner dose 0.4 µM)
cell count [1]: 105%
cell count [2]: 111%
cell count [3]: 83.2%
cell count [4]: 90.2%
cell count [5]: 109%
cell count [6]: 103%

Cn1cncc1[C@@](N)(c1ccc(Cl)cc1)c1ccc2c(c1)c(-c1cccc(Cl)c1)cc(=O)n2C [tipifarnib] + c1cc(-c2cnn3cc(-c4ccc(OCCN5CCCCC5)cc4)cnc23)ccn1 [Dorsomorphin] (first compound 0.01 µM, partner dose 0.4 µM)
cell count [1]: 89.1%
cell count [2]: 77.6%
cell count [3]: 91.1%
cell count [4]: 90.7%
cell count [5]: 93.7%
cell count [6]: 102%
